Measurements reported in PubChem BioAssay AID686979 (National Center for Advancing Translational Sciences (NCATS), 2013).
Screen size: about 420,000 compounds; about 50,000 (12%) were called active. This list was built around the results that the source calls inconclusive (neither active nor inactive); the mix of calls is not that of the screen. Calls come from the whole dose curve; as a rule, active = well fitted inhibition curve with a large enough effect; inconclusive = small, poorly fitted or top-dose-only effect; inactive = flat fitted curve, though single readings scatter. No potency is given beside an inconclusive call; the fits are too rough.
Potency is the fitted concentration of half-maximal effect; tags give direction and shape of the fitted curve.

Assay: qHTS for Inhibitors of human tyrosyl-DNA phosphodiesterase 1 (TDP1): qHTS in cells in presence of CPT; note: nearly all actives have a fitted effect of over 55% in size
Conditions: chicken DT40 Tdp1-/-;hTDP1 cells + 20 nM CPT, ATP luminescence, 48 h; series mostly up to 46.2 µM
Method in brief: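 Chicken DT40 Tdp1-/- cells complemented with human TDP1, 400 cells/well, exposed to compounds plus 20 nM camptothecin for at least 48 h at 37 C; viability read as ATP content by CellTiter-Glo luminescence.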
For O=C(Nc1ccc(C(=O)NCCCN2CCN(c3ccc(F)cc3)CC2)cc1)C1=CSCCO1, the Potency was inconclusive [inhibitor, single point].
With Cn1c(CNC(=O)c2ccc(Cl)cc2)nnc1SCC(=O)NC1=NCCS1 the Potency was inconclusive [inhibitor, single point].
For O=C1c2ccc(Cl)cc2S(=O)(=O)c2cccc(C(=O)N3CCC(Cc4ccccc4)CC3)c21, the Potency was inconclusive [inhibitor, single point].
In the case of Cc1ccc2nc(-c3cccnc3SCC(=O)N3c4ccccc4CC3C)[nH]c2c1 (configuration not stated), the Potency is reported as inconclusive [inhibitor, single point].
For CCOC(=O)c1cn2nc(-c3ccc(OC)cc3)cc2nc1C1CCN(C(=O)OC(C)(C)C)CC1, the Potency was inconclusive [inhibitor, single point].
With COc1cc(CN2CCN(C(O)(c3ccccc3)c3ccccc3)CC2)cc(OC)c1OC the Potency was inconclusive [inhibitor, single point].
In the case of CCCCc1c(-c2ccccc2OC)ncn1CCc1ccccc1, the Potency is reported as active: 20.6 µM.
In the case of Cc1ccc(C(C)C)c(OCc2ccc(C(=O)N/N=C/c3ccc(C(=O)O)cc3)cc2)c1, the Potency is reported as inconclusive [inhibitor, single point].
In the case of Cc1ccc(NS(=O)(=O)c2ccccc2)c([N+](=O)[O-])c1, the Potency is reported as “inactive”.
With CCC(c1nnnn1-c1ccc(OC)cc1)N1CCN(C/C=C/c2ccccc2)CC1 (configuration not stated) the Potency was active: 20.6 µM.
In the case of COc1cccc(CNC(=O)CCC2CCCN(C(=O)c3ccoc3)C2)c1 (configuration not stated), the Potency is reported as “inactive”.
In the case of O=C(Nc1ccc(F)cc1)Nc1ccc(Oc2ncnc3cc(Cl)ccc23)nc1, the Potency is reported as “inactive”.
In the case of COc1ccc(-c2cc(C(C)=O)c(C)n2CCC(=O)Nc2ccc(C(F)(F)F)cc2)cc1, the Potency is reported as active: 11.6 µM.
In the case of O=C(c1ccc2c(=O)n3c(nc2c1)CCC3)N1CCN(S(=O)(=O)c2cccc(F)c2)CC1, the Potency is reported as inconclusive [inhibitor, partial curve, poor fit].
With O=C(CN1C(=O)C2CC=C(Cl)CC2C1=O)NCc1ccccc1 (configuration not stated) the Potency was “inactive”.
In the case of COc1ccc(Cc2c(-c3cccc(Cl)c3)nc3ccc(Br)cn23)c(C)c1, the Potency is reported as inconclusive [inhibitor, single point].
For Cc1onc(-c2ccccc2)c1C(=O)N1CCCC(C)(C(=O)NS(=O)(=O)C2CC2)C1 (configuration not stated), the Potency was inconclusive [inhibitor, single point].
For O=c1[nH]cnc(O)c1Nc1cccc(Cl)c1, the Potency was “inactive”.
With Cc1cc(C)nc(-n2nc(C)c3c2NC(=O)CC3c2cc(F)ccc2F)n1 (configuration not stated) the Potency was inconclusive [inhibitor, single point].
For O=C(O)c1cccc([N+](=O)[O-])c1C(=O)Nc1ccc2ccccc2c1, the Potency was “inactive”.
In the case of O=C(c1cccc(Cl)c1)N1CCC(=O)N(C(COCc2ccccc2)Cc2ccccc2)CC1 (configuration not stated), the Potency is reported as inconclusive [inhibitor, single point].
For CC(C)(C)c1ccc(C(=O)O/N=C(\N)c2ccccn2)cc1, the Potency was active: 23.1 µM.
In the case of Nc1ccc2c(c1)Nc1ccccc1CC2, the Potency is reported as “inactive”.
With CC(C)c1ccc(CNC(=O)CCc2ccccc2)cc1 the Potency was “inactive”.
With CN(C)c1nc(N(C)C)nc(N(C#N)Cc2ccc(Cl)cc2)n1 the Potency was “inactive”.
In the case of Cc1ccc(-c2n[nH]c(=O)c3ccccc23)cc1N, the Potency is reported as inconclusive [inhibitor, partial curve].
In the case of CCc1cn(C2CC(O)C(CO)O2)c(=O)[nH]c1=O (configuration not stated), the Potency is reported as inconclusive [inhibitor, single point].
With Cc1ccc(S(=O)(=O)N2c3ccccc3-c3c(ssc3=S)C2(C)C)cc1 the Potency was inconclusive [inhibitor, single point].
In the case of Nn1c(SCC(=O)Nc2nccs2)nnc1-c1cccnc1, the Potency is reported as “inactive”.
With COC(=O)c1cc(=O)n(-c2ccc(F)cc2)c(=Nc2ccc(F)cc2)s1 the Potency was active: 6.51 µM.
For CN(Cc1ccccc1)C(=O)COc1ccc(Br)cc1Cl, the Potency was inconclusive [inhibitor, single point].
With Cc1cc(C(=O)Nc2c(F)cc(F)cc2Br)cs1 the Potency was inconclusive [inhibitor, single point].
With Cn1c(=O)cc(SCC(=O)N2CCN(c3ccccc3F)CC2)c2cc(Cl)ccc21 the Potency was inconclusive [inhibitor, single point].
In the case of CC(C)Sc1ncc(Cl)c(C(=O)Nc2ccc(S(=O)(=O)Nc3ncccn3)cc2)n1, the Potency is reported as inconclusive [inhibitor, single point].
In the case of O=C(NCCOc1ccccc1Cl)c1ccc2c(c1)S(=O)(=O)c1cc(Cl)ccc1C2=O, the Potency is reported as inconclusive [inhibitor, single point].
With CCOC(=O)[C@@H]1[C@H]2COc3ccccc3[C@@H]2N2C(=O)N(c3ccc(C(F)(F)F)cc3)C(=O)[C@@]12C the Potency was active: 13 µM.
With CCOc1cc(CN2CCN(CCc3ccccc3)C(CCO)C2)ccc1OC (configuration not stated) the Potency was inconclusive [inhibitor, full curve, poor fit].
For Cc1csc(=Nc2cccnc2)n1CC1CCCCC1, the Potency was “inactive”.
With CCOc1ccc(CCN2C(=O)C(=O)N([C@@H](Cc3ccc(O)cc3)CN3CCC[C@H]3CN3C(=O)C(=O)NC[C@@H]3Cc3ccc(O)cc3)C[C@@H]2Cc2ccccc2)cc1 the Potency was inconclusive [inhibitor, single point].
For Cc1cccc(C)c1C(O)c1ncc(-c2ccccc2F)[nH]1 (configuration not stated), the Potency was active: 20.6 µM.
With Nc1ncc(S(=O)(=O)c2ccc([N+](=O)[O-])cc2)s1 the Potency was inconclusive [inhibitor, single point].
With c1csc(-c2noc(CN3CCc4sccc4C3)n2)c1 the Potency was “inactive”.
For CC(C)(C)NC(=O)c1cc2c(ccc3ccccc32)oc1=O, the Potency was “inactive”.
In the case of COc1ccccc1N/C(=N/S(=O)(=O)c1ccc(C)cc1)c1ccccc1, the Potency is reported as inconclusive [inhibitor, partial curve, poor fit].
With NC(=O)[C@@H]1CC2(CC(c3cccc(NC(=O)CC(c4ccccc4)c4ccccc4)c3)=NO2)CN1C(=O)COc1ccc(Cl)cc1 (some centres not stated) the Potency was active: 18.4 µM.
For COc1ccc(CN(C)CC(=O)Nc2ccc(Cl)cc2F)c(OC)c1, the Potency was inconclusive [inhibitor, single point].
In the case of CCn1cc([N+](=O)[O-])c(C(=O)Nc2nc3ccc(OC)cc3s2)n1, the Potency is reported as “inactive”.
With COc1ccc(CNC(=O)CSc2n[nH]c(-c3ccc(OC)cc3)n2)cc1 the Potency was active: 9.2 µM.
In the case of O=C1c2oc3ccc(F)cc3c(=O)c2C(c2ccc(F)cc2)N1CCCN1CCOCC1 (configuration not stated), the Potency is reported as “inactive”.
With CCC1=NN(C(=O)c2cccnc2)C(O)(C(F)(F)F)C1 (configuration not stated) the Potency was active: 16.4 µM.
With O=Cc1[nH]c2ccccc2c1N(C(=O)CCl)c1ccccc1 the Potency was active: 10.3 µM.
For O=C1C(=Cc2ccco2)CCCC1=Cc1ccco1, the Potency was active: 23.1 µM.
With CCN(CC(=O)Nc1cc(Cl)ccc1C)C(=O)Cn1c(=O)cnc2ccccc21 the Potency was “inactive”.
In the case of CCONC(=O)Nc1ccccc1, the Potency is reported as “inactive”.
In the case of O=C(CSc1ncc(-c2ccccc2)[nH]1)Nc1cccc(C(F)(F)F)c1, the Potency is reported as inconclusive [inhibitor, single point].
With Cc1cc(Cl)ccc1OCC(=O)Nc1c(C(=O)c2ccccc2)oc2ccccc12 the Potency was “inactive”.
With COc1cccc(NC(=O)N2CCN(S(C)(=O)=O)CC2)c1 the Potency was “inactive”.
With O/N=C1\CC/C(=N\O)c2nn(-c3ccccc3Cl)nc21 the Potency was inconclusive [inhibitor, single point].
In the case of COc1cc(Cn2c(=O)sc3ccccc32)ccc1OCCC(C)C, the Potency is reported as inconclusive [inhibitor, single point].
With CC(C)c1ccc2c(c1)-c1ccccc1S(=O)(=O)N2CC(=O)N1CCCCC1 the Potency was inconclusive [inhibitor, single point].
In the case of Cc1ccc(N2CCN(S(=O)(=O)c3ccc(F)cc3)CC2)c(C)c1, the Potency is reported as inconclusive [inhibitor, single point].
With Cc1ccc(F)cc1NC(=O)/C=C/c1ccc(S(=O)(=O)N2CCOCC2)cc1 the Potency was inconclusive [inhibitor, partial curve].
With O=C(Nc1ccc(Cn2cccn2)cc1)c1ccc(COc2ccc(Br)cc2)cc1 the Potency was “inactive”.
In the case of CCC(=O)N1CCN(c2nc3ccc(Br)cc3s2)CC1, the Potency is reported as inconclusive [inhibitor, partial curve].
With Cc1ccccc1-c1nc(CS(=O)(=O)CC(=O)Nc2cc(Cl)cc(Cl)c2)c(C)o1 the Potency was inconclusive [inhibitor, single point].
For COc1ccc(S(=O)(=O)N(C)C[C@H]2Oc3c(NC(=O)Nc4ccc5c(c4)OCO5)cccc3C(=O)N([C@H](C)CO)C[C@@H]2C)cc1, the Potency was inconclusive [inhibitor, single point].
For O=c1cc(N2CCCCC2)nc2n1CCCS2, the Potency was inconclusive [inhibitor, single point].
In the case of CC1CN(S(=O)(=O)c2cccc(C(=O)Nc3cc(Cl)ccc3N3CCOCC3)c2)CC(C)O1 (configuration not stated), the Potency is reported as inconclusive [inhibitor, single point].
In the case of Cc1cc(NC(=O)CSC2=NS(=O)(=O)c3ccccc3N2)no1, the Potency is reported as “inactive”.
With Cc1ccc(OCC(=O)Nc2ccc(S(=O)(=O)N3CCOCC3)cc2)c(Br)c1 the Potency was inconclusive [inhibitor, single point].
For CCc1ccc(CNC(=O)CCS(=O)(=O)Cc2ccccc2F)cc1, the Potency was “inactive”.
For S=C(Nc1ccc(Cl)cc1)Nc1cccc2cnccc12, the Potency was inconclusive [inhibitor, single point].
